Changes are numbered by the printed parent chain; changes in the protein carry UniProt numbers. The list shows a part of the results.
T1: RBFOX1 RRM (Homo sapiens, UniProt Q9NWB1 109-208)
T1 sequence: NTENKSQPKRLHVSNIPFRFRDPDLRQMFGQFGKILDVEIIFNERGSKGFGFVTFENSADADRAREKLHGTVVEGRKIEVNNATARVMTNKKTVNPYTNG

B1: UAUUACG (DNA:RNA)
RNA: GGGAGACCGGAAUUCAGAUUGUCCUAUUACGUUAAAUCCCGUCGUAGCCACCA
DNA 1: CAATCTGAATTCCGGTCTCCC
DNA 2: TGGTGGCTACGACGGGATT
B2: CAAAGUU (DNA:RNA)
RNA: B1 RNA with U25C, U27A, U28A, A29G, C30U, G31U
DNA 1: CAATCTGAATTCCGGTCTCCC
DNA 2: TGGTGGCTACGACGGGATT
B3: CUCGCCA (DNA:RNA)
RNA: B1 RNA with U25C, A26U, U27C, U28G, A29C, G31A
DNA 1: CAATCTGAATTCCGGTCTCCC
DNA 2: TGGTGGCTACGACGGGATT
B4: CUAUUAA (DNA:RNA)
RNA: B1 RNA with U25C, A26U, U27A, A29U, C30A, G31A
DNA 1: CAATCTGAATTCCGGTCTCCC
DNA 2: TGGTGGCTACGACGGGATT
B5: CCAGCUU (DNA:RNA)
RNA: GGGAGACCGGAAUUCAGAUUGUCCCCAGCUUUUAAAUCCCGUCGUAGCCACCA
DNA 1: CAATCTGAATTCCGGTCTCCC
DNA 2: TGGTGGCTACGACGGGATT
B6: CGCAGAA (DNA:RNA)
RNA: B5 RNA with C26G, A27C, G28A, C29G, U30A, U31A
DNA 1: CAATCTGAATTCCGGTCTCCC
DNA 2: TGGTGGCTACGACGGGATT
B7: AUUUACU (DNA:RNA)
RNA: B1 RNA with U25A, A26U, G31U
DNA 1: CAATCTGAATTCCGGTCTCCC
DNA 2: TGGTGGCTACGACGGGATT
B8: GCUUUCG (DNA:RNA)
RNA: B1 RNA with U25G, A26C, A29U
DNA 1: CAATCTGAATTCCGGTCTCCC
DNA 2: TGGTGGCTACGACGGGATT
B9: GUUGAUG (DNA:RNA)
RNA: B1 RNA with U25G, A26U, U28G, C30U
DNA 1: CAATCTGAATTCCGGTCTCCC
DNA 2: TGGTGGCTACGACGGGATT
B10: GCGGGGU (DNA:RNA)
RNA: B5 RNA with C25G, A27G, C29G, U30G
DNA 1: CAATCTGAATTCCGGTCTCCC
DNA 2: TGGTGGCTACGACGGGATT
B11: UACUUCC (DNA:RNA)
RNA: B1 RNA with U27C, A29U, G31C
DNA 1: CAATCTGAATTCCGGTCTCCC
DNA 2: TGGTGGCTACGACGGGATT
B12: CCAUAAG (DNA:RNA)
RNA: B5 RNA with G28U, C29A, U30A, U31G
DNA 1: CAATCTGAATTCCGGTCTCCC
DNA 2: TGGTGGCTACGACGGGATT
B13: GCACCCG (DNA:RNA)
RNA: B5 RNA with C25G, G28C, U30C, U31G
DNA 1: CAATCTGAATTCCGGTCTCCC
DNA 2: TGGTGGCTACGACGGGATT
B14: ACGGCCG (DNA:RNA)
RNA: B5 RNA with C25A, A27G, U30C, U31G
DNA 1: CAATCTGAATTCCGGTCTCCC
DNA 2: TGGTGGCTACGACGGGATT
B15: UUUUCCC (DNA:RNA)
RNA: B1 RNA with A26U, A29C, G31C
DNA 1: CAATCTGAATTCCGGTCTCCC
DNA 2: TGGTGGCTACGACGGGATT
B16: GAGGGUA (DNA:RNA)
RNA: B5 RNA with C25G, C26A, A27G, C29G, U31A
DNA 1: CAATCTGAATTCCGGTCTCCC
DNA 2: TGGTGGCTACGACGGGATT
B17: CGCGGGC (DNA:RNA)
RNA: B5 RNA with C26G, A27C, C29G, U30G, U31C
DNA 1: CAATCTGAATTCCGGTCTCCC
DNA 2: TGGTGGCTACGACGGGATT
B18: UUGUCGG (DNA:RNA)
RNA: B1 RNA with A26U, U27G, A29C, C30G
DNA 1: CAATCTGAATTCCGGTCTCCC
DNA 2: TGGTGGCTACGACGGGATT
B19: GUCUGGC (DNA:RNA)
RNA: B1 RNA with U25G, A26U, U27C, A29G, C30G, G31C
DNA 1: CAATCTGAATTCCGGTCTCCC
DNA 2: TGGTGGCTACGACGGGATT
B20: GACAGCG (DNA:RNA)
RNA: B1 RNA with U25G, U27C, U28A, A29G
DNA 1: CAATCTGAATTCCGGTCTCCC
DNA 2: TGGTGGCTACGACGGGATT
B21: GCAAAAG (DNA:RNA)
RNA: B5 RNA with C25G, G28A, C29A, U30A, U31G
DNA 1: CAATCTGAATTCCGGTCTCCC
DNA 2: TGGTGGCTACGACGGGATT
B22: GGCAUCU (DNA:RNA)
RNA: B5 RNA with C25G, C26G, A27C, G28A, C29U, U30C
DNA 1: CAATCTGAATTCCGGTCTCCC
DNA 2: TGGTGGCTACGACGGGATT
B23: CGGACUC (DNA:RNA)
RNA: B5 RNA with C26G, A27G, G28A, U31C
DNA 1: CAATCTGAATTCCGGTCTCCC
DNA 2: TGGTGGCTACGACGGGATT
B24: UCGGAUC (DNA:RNA)
RNA: B5 RNA with C25U, A27G, C29A, U31C
DNA 1: CAATCTGAATTCCGGTCTCCC
DNA 2: TGGTGGCTACGACGGGATT
B25: CCGAGUU (DNA:RNA)
RNA: B5 RNA with A27G, G28A, C29G
DNA 1: CAATCTGAATTCCGGTCTCCC
DNA 2: TGGTGGCTACGACGGGATT
B26: UGAAGAC (DNA:RNA)
RNA: B5 RNA with C25U, C26G, G28A, C29G, U30A, U31C
DNA 1: CAATCTGAATTCCGGTCTCCC
DNA 2: TGGTGGCTACGACGGGATT
B27: UCUUAGG (DNA:RNA)
RNA: B1 RNA with A26C, C30G
DNA 1: CAATCTGAATTCCGGTCTCCC
DNA 2: TGGTGGCTACGACGGGATT
B28: UGUUUAC (DNA:RNA)
RNA: B1 RNA with A26G, A29U, C30A, G31C
DNA 1: CAATCTGAATTCCGGTCTCCC
DNA 2: TGGTGGCTACGACGGGATT
B29: GGAUCCA (DNA:RNA)
RNA: B5 RNA with C25G, C26G, G28U, U30C, U31A
DNA 1: CAATCTGAATTCCGGTCTCCC
DNA 2: TGGTGGCTACGACGGGATT
B30: GAUAUGG (DNA:RNA)
RNA: B1 RNA with U25G, U28A, A29U, C30G
DNA 1: CAATCTGAATTCCGGTCTCCC
DNA 2: TGGTGGCTACGACGGGATT
B31: CCCUAAA (DNA:RNA)
RNA: B5 RNA with A27C, G28U, C29A, U30A, U31A
DNA 1: CAATCTGAATTCCGGTCTCCC
DNA 2: TGGTGGCTACGACGGGATT

Each binder was assayed against T1, RBFOX1 RRM (assay: EMSA; HiTS-Eq, 1 nM pool, 10 min; buffer printed only for the single-RNA assays: 10 mM Tris pH 7.5, 150 mM NaCl, 3.4 mM EDTA, 0.001% NP-40, 30 C). Details: tags: His6 N-terminal (pET28a); label: 5' 32P.
Procedure, shortened: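 Purified RbFox RRM (wild type or mutant) was equilibrated for 10 min in 50 µL with 1 nM of a 5′-radiolabelled pool of RNA with 7 randomized nucleotides, its flanks annealed to DNA oligonucleotides, across increasing protein concentrations. Free RNA was separated by 8% native PAGE, excised, reverse-transcribed, PCR-barcoded and sequenced on an Illumina HiSeq 2500. Relative association constants came from read-count changes of each variant against the control reaction, normalised to the cognate motif.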

Binder | binding signal
B1 | 0.0123 KA relative to UGCAUGU
B2 | 0.00359 KA relative to UGCAUGU
B3 | 0.00557 KA relative to UGCAUGU
B4 | 0.00764 KA relative to UGCAUGU
B5 | 0.0059 KA relative to UGCAUGU
B6 | 0.0087 KA relative to UGCAUGU
B7 | 0.00236 KA relative to UGCAUGU
B8 | 0.0216 KA relative to UGCAUGU
B9 | 0.0196 KA relative to UGCAUGU
B10 | 0.0285 KA relative to UGCAUGU
B11 | 0.00478 KA relative to UGCAUGU
B12 | 0.00746 KA relative to UGCAUGU
B13 | 0.00754 KA relative to UGCAUGU
B14 | 0.016 KA relative to UGCAUGU
B15 | 0.00684 KA relative to UGCAUGU
B16 | 0.0154 KA relative to UGCAUGU

Binder | binding signal
B17 | 0.00483 KA relative to UGCAUGU
B18 | 0.0235 KA relative to UGCAUGU
B19 | 0.0161 KA relative to UGCAUGU
B20 | 0.0141 KA relative to UGCAUGU
B21 | 0.00442 KA relative to UGCAUGU
B22 | 0.0161 KA relative to UGCAUGU
B23 | 0.00791 KA relative to UGCAUGU
B24 | 0.0104 KA relative to UGCAUGU
B25 | 0.00981 KA relative to UGCAUGU
B26 | 0.0147 KA relative to UGCAUGU
B27 | 0.00965 KA relative to UGCAUGU
B28 | 0.0167 KA relative to UGCAUGU
B29 | 0.00197 KA relative to UGCAUGU
B30 | 0.0167 KA relative to UGCAUGU
B31 | 0.00711 KA relative to UGCAUGU

— article PMC9911399, “Two distinct binding modes provide the RNA-binding protein RbFox with extraordinary sequence specificity”
